# From the supplement of paper PMC8728848
# Some of the results follow.
# B1: Eosinophil cationic protein (ECP) (Homo sapiens), P12724 (protein)
# chain: MVPKLFTSQICLLLLLGLMGVEGSLHARPPQFTRAQWFAIQHISLNPPRCTIAMRAINNYRWRCKNQNTFLRTTFANVVNVCGNQSIRCPHNRTLNNCHRSRFRVPLLHCDLINPGAQNISNCTYADRPGRRFYVVACDNRDPRDSPRYPVVPVHLDTTI
# Assays:
# Assay in all cases: glycan array binding signal (z-score within array); higher = stronger binding
# Conditions in all cases: glycan notation: IUPAC condensed, linker removed
# [1] = molecular target: Fuc(a1-2)[GalNAc(a1-3)]Gal(b1-4)Glc
# Procedure, shortened: (§1)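 Columns mapping to the same glycan were averaged after glycan names were converted to IUPAC-condensed notation. The data come from 3228 arrays in the Consortium for Functional Glycomics database, limited to those with an available protein sequence. Binding is reported as a within-array Z-score averaged across arrays of one protein sequence and across linkers.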
# [2] = molecular target: Fuc(a1-2)[GalNAc(a1-3)]Gal(b1-4)GlcNAc
# Procedure, shortened: as §1
# [3] = molecular target: Fuc(a1-2)[GalNAc(a1-3)]Gal(b1-4)GlcNAc(b1-2)Man(a1-3)[Fuc(a1-2)[GalNAc(a1-3)]Gal(b1-4)GlcNAc(b1-2)Man(a1-6)]Man(b1-4)GlcNAc(b1-4)GlcNAc
# Procedure, shortened: as §1
# [4] = molecular target: Fuc(a1-2)[GalNAc(a1-3)]Gal(b1-4)GlcNAc(b1-2)Man(a1-3)[Fuc(a1-2)[GalNAc(a1-3)]Gal(b1-4)GlcNAc(b1-2)Man(a1-6)]Man(b1-4)GlcNAc(b1-4)[Fuc(a1-6)]GlcNAc
# Procedure, shortened: as §1
# [5] = molecular target: Fuc(a1-2)[GalNAc(a1-3)]Gal(b1-4)GlcNAc(b1-3)Gal(b1-4)GlcNAc
# Procedure, shortened: as §1
# [6] = molecular target: Fuc(a1-2)[GalNAc(a1-3)]Gal(b1-4)GlcNAc(b1-3)Gal(b1-4)GlcNAc(b1-3)Gal(b1-4)GlcNAc
# Procedure, shortened: as §1
# [7] = molecular target: Fuc(a1-2)[GalNAc(a1-3)]Gal(b1-4)GlcNAc(b1-3)GalNAc
# Procedure, shortened: as §1
# [8] = molecular target: Fuc(a1-2)[GalNAc(a1-3)]Gal(b1-4)[Fuc(a1-3)]GlcNAc
# Procedure, shortened: as §1
# [9] = molecular target: Fuc(a1-2)[GalNAc(a1-3)]Gal(b1-4)[Fuc(a1-3)]GlcNAc(b1-3)GalNAc
# Procedure, shortened: as §1
# [10] = molecular target: Fuc(a1-2)[GalNAc(a1-4)]Gal(b1-4)GlcNAc
# Procedure, shortened: as §1
# [11] = molecular target: Fuc(a1-2)[GalNAc(b1-3)]Gal
# Procedure, shortened: as §1
# Fuc(a1-3)GlcNAc = molecular target: Fuc(a1-3)GlcNAc
# Procedure, shortened: as §1
# [12] = molecular target: Fuc(a1-3)[Gal(b1-4)]Glc6S
# Procedure, shortened: as §1
# [13] = molecular target: Fuc(a1-3)[Gal(b1-4)]GlcNAc
# Procedure, shortened: as §1
# [14] = molecular target: Fuc(a1-3)[Gal(b1-4)]GlcNAc(b1-2)Man(a1-3)[Fuc(a1-3)[Gal(b1-4)]GlcNAc(b1-2)Man(a1-6)]Man(b1-4)GlcNAc(b1-4)GlcNAc
# Procedure, shortened: as §1
# [15] = molecular target: Fuc(a1-3)[Gal(b1-4)]GlcNAc(b1-2)Man(a1-3)[Fuc(a1-3)[Gal(b1-4)]GlcNAc(b1-2)Man(a1-6)]Man(b1-4)GlcNAc(b1-4)[Fuc(a1-6)]GlcNAc
# Procedure, shortened: as §1
# [16] = molecular target: Fuc(a1-3)[Gal(b1-4)]GlcNAc(b1-3)Gal(b1-3)[Fuc(a1-4)]GlcNAc
# Procedure, shortened: as §1
# [17] = molecular target: Fuc(a1-3)[Gal(b1-4)]GlcNAc(b1-3)GalNAc
# Procedure, shortened: as §1
# [18] = molecular target: Fuc(a1-3)[Gal(b1-4)]GlcNAc(b1-4)Gal(b1-4)[Fuc(a1-3)]GlcNAc
# Procedure, shortened: as §1
# [19] = molecular target: Fuc(a1-3)[Gal(b1-4)]GlcNAc(b1-4)Gal(b1-4)[Fuc(a1-3)]GlcNAc(b1-4)Gal(b1-4)[Fuc(a1-3)]GlcNAc
# Procedure, shortened: as §1
# [20] = molecular target: Fuc(a1-3)[Gal(b1-4)]GlcNAc(b1-6)GalNAc
# Procedure, shortened: as §1
# [21] = molecular target: Fuc(a1-3)[Gal(b1-4)]GlcNAc(b1-6)[Gal(b1-3)GlcNAc(b1-3)]Gal(b1-4)Glc
# Procedure, shortened: as §1
# [22] = molecular target: Fuc(a1-3)[Gal(b1-4)]GlcNAc(b1-6)[Neu5Ac(a2-3)Gal(b1-3)]GalNAc
# Procedure, shortened: as §1
# [23] = molecular target: Fuc(a1-3)[Gal(b1-4)]GlcNAc6S
# Procedure, shortened: as §1
# [24] = molecular target: Fuc(a1-3)[Gal3S(b1-4)]GlcNAc
# Procedure, shortened: as §1
# [25] = molecular target: Fuc(a1-3)[Gal3S(b1-4)]GlcNAc6S
# Procedure, shortened: as §1
# [26] = molecular target: Fuc(a1-3)[GalNAc(b1-4)]GlcNAc
# Procedure, shortened: as §1
# Fuc(a1-4)GlcNAc = molecular target: Fuc(a1-4)GlcNAc
# Procedure, shortened: as §1
# Fuc(b1-3)GlcNAc = molecular target: Fuc(b1-3)GlcNAc
# Procedure, shortened: as §1
# Gal(a1-2)Gal = molecular target: Gal(a1-2)Gal
# Procedure, shortened: as §1
# Gal(a1-3)Gal = molecular target: Gal(a1-3)Gal
# Procedure, shortened: as §1
# Gal(a1-3)Gal(b1-3)GlcNAc = molecular target: Gal(a1-3)Gal(b1-3)GlcNAc
# Procedure, shortened: as §1
# [27] = molecular target: Gal(a1-3)Gal(b1-3)GlcNAc(b1-2)Man(a1-3)[Gal(a1-3)Gal(b1-3)GlcNAc(b1-2)Man(a1-6)]Man(b1-4)GlcNAc(b1-4)GlcNAc
# Procedure, shortened: as §1
# [28] = molecular target: Gal(a1-3)Gal(b1-3)GlcNAc(b1-3)GalNAc
# Procedure, shortened: as §1
# [29] = molecular target: Gal(a1-3)Gal(b1-3)[Fuc(a1-4)]GlcNAc(b1-2)Man(a1-3)[Gal(a1-3)Gal(b1-3)[Fuc(a1-4)]GlcNAc(b1-2)Man(a1-6)]Man(b1-4)GlcNAc(b1-4)GlcNAc
# Procedure, shortened: as §1
# Gal(a1-3)Gal(b1-4)Glc = molecular target: Gal(a1-3)Gal(b1-4)Glc
# Procedure, shortened: as §1
# Gal(a1-3)Gal(b1-4)GlcNAc = molecular target: Gal(a1-3)Gal(b1-4)GlcNAc
# Procedure, shortened: as §1
# [30] = molecular target: Gal(a1-3)Gal(b1-4)GlcNAc(b1-3)GalNAc
# Procedure, shortened: as §1
# [31] = molecular target: Gal(a1-3)Gal(b1-4)[Fuc(a1-3)]GlcNAc
# Procedure, shortened: as §1
# [32] = molecular target: Gal(a1-3)Gal(b1-4)[Fuc(a1-3)]GlcNAc(b1-2)Man(a1-3)[Gal(a1-3)Gal(b1-4)[Fuc(a1-3)]GlcNAc(b1-2)Man(a1-6)]Man(b1-4)GlcNAc(b1-4)GlcNAc
# Procedure, shortened: as §1
# Gal(a1-3)GalNAc = molecular target: Gal(a1-3)GalNAc
# Procedure, shortened: as §1
# [33] = molecular target: Gal(a1-3)[Gal(a1-4)]Gal(b1-4)GlcNAc
# Procedure, shortened: as §1
# [34] = molecular target: Gal(a1-4)Gal(b1-3)GlcNAc(b1-2)Man(a1-3)[Gal(a1-4)Gal(b1-3)GlcNAc(b1-2)Man(a1-6)]Man(b1-4)GlcNAc(b1-4)GlcNAc
# Procedure, shortened: as §1
# Gal(a1-4)Gal(b1-4)Glc = molecular target: Gal(a1-4)Gal(b1-4)Glc
# Procedure, shortened: as §1
# Gal(a1-4)Gal(b1-4)GlcNAc = molecular target: Gal(a1-4)Gal(b1-4)GlcNAc
# Procedure, shortened: as §1
# [35] = molecular target: Gal(a1-4)Gal(b1-4)GlcNAc(b1-2)Man(a1-3)[Gal(a1-4)Gal(b1-4)GlcNAc(b1-2)Man(a1-6)]Man(b1-4)GlcNAc(b1-4)GlcNAc
# Procedure, shortened: as §1
# [36] = molecular target: Gal(a1-4)Gal(b1-4)GlcNAc(b1-3)Gal(b1-4)Glc
# Procedure, shortened: as §1
# Gal(a1-4)GlcNAc = molecular target: Gal(a1-4)GlcNAc
# Procedure, shortened: as §1
# Gal(a1-6)Glc = molecular target: Gal(a1-6)Glc
# Procedure, shortened: as §1
# Gal(b1-2)Gal = molecular target: Gal(b1-2)Gal
# Procedure, shortened: as §1
# Gal(b1-3)Gal = molecular target: Gal(b1-3)Gal
# Procedure, shortened: as §1
# Gal(b1-3)Gal(b1-4)GlcNAc = molecular target: Gal(b1-3)Gal(b1-4)GlcNAc
# Procedure, shortened: as §1
# [37] = molecular target: Gal(b1-3)Gal(b1-4)GlcNAc(b1-2)Man(a1-3)[Gal(b1-3)Gal(b1-4)GlcNAc(b1-2)Man(a1-6)]Man(b1-4)GlcNAc(b1-4)GlcNAc
# Procedure, shortened: as §1
# Gal(b1-3)GalNAc = molecular target: Gal(b1-3)GalNAc
# Procedure, shortened: as §1
# [38] = molecular target: Gal(b1-3)GalNAc(a1-3)[Fuc(a1-2)]Gal(b1-4)Glc
# Procedure, shortened: as §1
# [39] = molecular target: Gal(b1-3)GalNAc(a1-3)[Fuc(a1-2)]Gal(b1-4)GlcNAc
# Procedure, shortened: as §1
# [40] = molecular target: Gal(b1-3)GalNAc(b1-3)Gal(a1-4)Gal(b1-4)Glc
# Procedure, shortened: as §1
# [41] = molecular target: Gal(b1-3)GalNAc(b1-4)Gal(b1-4)Glc
# Procedure, shortened: as §1
# [42] = molecular target: Gal(b1-3)GalNAc(b1-4)[Neu5Ac(a2-3)]Gal(b1-4)Glc
# Procedure, shortened: as §1
# Gal(b1-3)GlcNAc = molecular target: Gal(b1-3)GlcNAc
# Procedure, shortened: as §1
binder,measurement,setting,value
B1,glycan array binding signal (z-score),[1],-0.028
same,glycan array binding signal (z-score),[2],-0.271
same,glycan array binding signal (z-score),[3],-0.389
same,glycan array binding signal (z-score),[4],-0.524
same,glycan array binding signal (z-score),[5],0.068
same,glycan array binding signal (z-score),[6],-0.346
same,glycan array binding signal (z-score),[7],0.062
same,glycan array binding signal (z-score),[8],0.326
same,glycan array binding signal (z-score),[9],1.18
same,glycan array binding signal (z-score),[10],-0.287
same,glycan array binding signal (z-score),[11],-0.498
same,glycan array binding signal (z-score),Fuc(a1-3)GlcNAc,-0.717
same,glycan array binding signal (z-score),[12],0.016
same,glycan array binding signal (z-score),[13],-0.392
same,glycan array binding signal (z-score),[14],-0.346
same,glycan array binding signal (z-score),[15],-0.227
same,glycan array binding signal (z-score),[16],-0.263
same,glycan array binding signal (z-score),[17],0.621
same,glycan array binding signal (z-score),[18],0.111
same,glycan array binding signal (z-score),[19],-0.066
same,glycan array binding signal (z-score),[20],2.25
same,glycan array binding signal (z-score),[21],-0.352
same,glycan array binding signal (z-score),[22],0.52
same,glycan array binding signal (z-score),[23],0.08
same,glycan array binding signal (z-score),[24],0.329
same,glycan array binding signal (z-score),[25],0.732
same,glycan array binding signal (z-score),[26],-0.183
same,glycan array binding signal (z-score),Fuc(a1-4)GlcNAc,0.072
same,glycan array binding signal (z-score),Fuc(b1-3)GlcNAc,-0.109
same,glycan array binding signal (z-score),Gal(a1-2)Gal,-0.197
same,glycan array binding signal (z-score),Gal(a1-3)Gal,-0.598
same,glycan array binding signal (z-score),Gal(a1-3)Gal(b1-3)GlcNAc,-0.239
same,glycan array binding signal (z-score),[27],1.32
same,glycan array binding signal (z-score),[28],-0.172
same,glycan array binding signal (z-score),[29],-0.345
same,glycan array binding signal (z-score),Gal(a1-3)Gal(b1-4)Glc,-0.116
same,glycan array binding signal (z-score),Gal(a1-3)Gal(b1-4)GlcNAc,0.117
same,glycan array binding signal (z-score),[30],-0.495
same,glycan array binding signal (z-score),[31],-0.346
same,glycan array binding signal (z-score),[32],2.23
same,glycan array binding signal (z-score),Gal(a1-3)GalNAc,-0.078
same,glycan array binding signal (z-score),[33],-0.503
same,glycan array binding signal (z-score),[34],-0.14
same,glycan array binding signal (z-score),Gal(a1-4)Gal(b1-4)Glc,-0.102
same,glycan array binding signal (z-score),Gal(a1-4)Gal(b1-4)GlcNAc,-0.306
same,glycan array binding signal (z-score),[35],0.094
same,glycan array binding signal (z-score),[36],0.055
same,glycan array binding signal (z-score),Gal(a1-4)GlcNAc,-0.254
same,glycan array binding signal (z-score),Gal(a1-6)Glc,0.751
same,glycan array binding signal (z-score),Gal(b1-2)Gal,-0.424
same,glycan array binding signal (z-score),Gal(b1-3)Gal,0.296
same,glycan array binding signal (z-score),Gal(b1-3)Gal(b1-4)GlcNAc,-0.344
same,glycan array binding signal (z-score),[37],-0.135
same,glycan array binding signal (z-score),Gal(b1-3)GalNAc,-0.081
same,glycan array binding signal (z-score),[38],0.07
same,glycan array binding signal (z-score),[39],-0.397
same,glycan array binding signal (z-score),[40],-0.334
same,glycan array binding signal (z-score),[41],-0.077
same,glycan array binding signal (z-score),[42],-0.191
same,glycan array binding signal (z-score),Gal(b1-3)GlcNAc,-0.185
